# PubChem BioAssay AID1461 (National Center for Advancing Translational Sciences (NCATS), 2008)
# Screen size: about 220,000 compounds; about 2,300 (1%) were called active. Inconclusive means that the source gave no clear call. Such entries were picked first, then a sample of the others. Calls come from the whole dose curve; as a rule, active = well fitted inhibition curve with a large enough effect; inconclusive = small, poorly fitted or top-dose-only effect, or effect the other way; inactive = no such curve, though single readings can be large or run the other way. Potencies of inconclusive entries are left out as doubtful fits.
# Molecular target: Neuropeptide S receptor (Homo sapiens) (UniProt Q6W5P4)
# Assay: qHTS Assay for Antagonists of the Neuropeptide S Receptor: cAMP Signal Transduction; note: nearly all actives have a fitted effect of over 50% in size
# Conditions: CHO-NPSR cells, cAMP TR-FRET, antagonist mode; activity change, negative = inhibition: at 38.3 µM (top of the series) unless noted
# % is set by controls: 0 for no effect and ±100 for the full control effect; potency is the fitted concentration of half-maximal effect; tags give direction and shape of the fitted curve.
# UniProt Q6W5P4, sequence (Q6W5P4 whole entry, looked up): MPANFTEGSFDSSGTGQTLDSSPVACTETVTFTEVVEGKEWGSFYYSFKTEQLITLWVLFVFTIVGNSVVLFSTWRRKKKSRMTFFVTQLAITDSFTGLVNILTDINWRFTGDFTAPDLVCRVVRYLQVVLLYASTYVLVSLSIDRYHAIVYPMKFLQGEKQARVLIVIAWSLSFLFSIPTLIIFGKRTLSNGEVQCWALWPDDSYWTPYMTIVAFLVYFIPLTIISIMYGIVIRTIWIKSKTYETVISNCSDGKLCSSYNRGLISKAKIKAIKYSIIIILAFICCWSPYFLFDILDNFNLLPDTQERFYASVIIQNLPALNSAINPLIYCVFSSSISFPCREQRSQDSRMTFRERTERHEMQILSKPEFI
Structure (SMILES),Potency,"activity change, negative = inhibition"
COc1ccc(C2Oc3ccccc3C3=C2C(c2cccs2)n2ncnc2N3)cc1 (stereo not drawn),"inconclusive [inhibitor, single point]",–
Cc1ccc(OCCN2C(=O)c3ccccc3C2=O)c([N+](=O)[O-])c1,–,inactive: -7.22%
O=S(=O)([N-]c1nc2ccccc2nc1-[n+]1ccc(Cc2ccccc2)cc1)c1ccc(Br)s1,"inconclusive [inhibitor, single point]",–
COc1cccc(C(=O)Cn2c(Br)nc3c2c(=O)n(C)c(=O)n3C)c1,–,inactive: -18.3% [at 46.1 µM]
O=C(c1cc2nc(-c3ccccc3)cc(-c3ccccc3)n2n1)N1CCN(C(=O)c2ccco2)CC1,"inconclusive [inhibitor, partial curve]",–
CC(=O)c1ccc(N2CCN(C(=O)c3cc4c(-c5ccccc5F)nn(C)c4s3)CC2)cc1,"inconclusive [inhibitor, partial curve, poor fit]",–
O=C(CSc1cn(Cc2ccccc2)c2ccccc12)Nc1nccs1,"inconclusive [inhibitor, single point]",–
COC(=O)[C@H](CCSC)NC(=O)NCCc1ccccc1F,–,inactive: -6.62% [at 46.1 µM]
Cc1nn(-c2ccccc2)c2c1C(c1ccc(O)c(O)c1)N1C(=N2)C(Nc2ccccc2)=Nc2ccccc21 (stereo not drawn),"inconclusive [inhibitor, single point]",–
COC(=O)c1cc(COC(=O)c2nc3nc(C)cc(C)n3n2)oc1C,"inconclusive [inhibitor, single point]",–
Cc1ccc(O)c(-c2cc(-c3ccccc3F)[nH]n2)c1,"inconclusive [inhibitor, single point]",–
c1ccc(Cn2c3ccccc3c3nnc(SCCN4CCCCC4)nc32)cc1,"inconclusive [activator, single point]",–
COc1ccccc1NC(=O)CN1CCN(CC(=O)Nc2ccc(Cl)c(C(F)(F)F)c2)CC1,"inconclusive [inhibitor, single point]",–
Cc1ccccc1CN1CCN(Cc2ccccc2C(F)(F)F)CC1,"inconclusive [inhibitor, single point]",–
O=c1c2ccccc2c(C=Nc2ccc(S(=O)(=O)N3CCCCC3)cc2)c(O)n1-c1ccc(Cl)cn1,–,inactive: 0.941%
O=C1c2ccccc2C(=O)N1CC(=O)N1c2ccccc2Sc2ccc(C(F)(F)F)cc21,"inconclusive [inhibitor, partial curve, poor fit]",–
CC(=O)Oc1ccc(N2C(=O)C3C(C2=O)C2(C)C=CC3(C)O2)cc1 (stereo not drawn),"inconclusive [inhibitor, single point]",–
COC(=O)CCSCC(=O)N1N=C(c2ccc(Br)cc2)CC1c1cccc(OC)c1OC (stereo not drawn),"inconclusive [inhibitor, single point]",–
C/C(CC(=O)Nc1ccc(Cl)cc1Cl)=N\NC(=O)c1ccncc1,–,inactive: 1.88%
CCN(CC)CCN1C(=O)c2cccc3cc(N)cc(c23)C1=O,"inconclusive [activator, partial curve]",–
Cc1ccc(CNC(=O)C23CN(Cc4ccccc4)CC2C(c2ccc([N+](=O)[O-])cc2)=NO3)o1 (stereo not drawn),"inconclusive [inhibitor, full curve, poor fit]",–
Cc1cc(/C=C2\NC(=S)N(C)C2=O)ccc1N1CCCC1,"inconclusive [activator, single point]",–
O=C(Cn1cnc2c(oc3ccccc32)c1=O)NCC1CCCO1 (stereo not drawn),"inconclusive [activator, partial curve]",–

Structure (SMILES),Potency,"activity change, negative = inhibition"
COc1ccc(CCNC(=O)COc2ncnc3cc([N+](=O)[O-])ccc23)cc1,–,inactive: 19.5% [at 46.1 µM]
Cc1cc(Cl)ccc1N=c1ssnc1Cl,"inconclusive [inhibitor, single point]",–
COc1ccc(/C=C(/NC(=O)c2ccccc2Cl)C(=O)NCCCC(=O)O)cc1,–,inactive: -4.87%
CCCCCCC(=O)N=Nc1c(O)[nH]c2ccc([N+](=O)[O-])cc12,–,inactive: -11.1%
CCCCCC(=O)Nc1ccccc1N1CCN(c2ccccc2)CC1,"inconclusive [inhibitor, single point]",–
CCOc1ccc2[nH]c(=O)c(CN(Cc3ccco3)C(=O)c3ccc(Br)cc3)cc2c1,"inconclusive [activator, full curve, poor fit]",–
CSc1sc(-c2nnc(SCC(=O)Nc3ccc(Cl)cc3)n2C)c2c1C=CCC2,"inconclusive [activator, single point]",–
Cc1ccccc1/C=C/c1nc2ccccc2c(=O)[nH]1,"inconclusive [activator, partial curve]",–
CC(C)c1nc(N2CCCC2)c(C#N)c2c1CCCC2,"inconclusive [inhibitor, single point]",–
COc1ccc(/C=N/Nc2cc(C)nc(-n3nc(C)cc3C)n2)cc1,"inconclusive [inhibitor, single point]",–
Cc1ccc(S(=O)(=O)N2CCCC(C(=O)N3CCCc4ccccc43)C2)cc1 (stereo not drawn),"inconclusive [inhibitor, single point]",–
Cc1cccc2cc(CN(Cc3nnnn3C3CCCCC3)C3CCCC3)c3nnnn3c12,"inconclusive [inhibitor, partial curve]",–
C[C@@H]1CC=C[C@H]2[C@H]1C(=O)N(Cc1ccccc1)[C@H]2c1ccc2ccccc2c1Br,active: 10 µM,–
COC(=O)/C(=C/c1ccco1)NC(=O)c1ccco1,–,inactive: 6.44%
Cc1nnc(NC(=O)CSc2cn(Cc3ccccc3)c3ccccc23)s1,"inconclusive [inhibitor, single point]",–
CC(C)CC(NS(=O)(=O)c1ccc2c(c1)oc(=O)n2C)C(=O)NCc1cccnc1 (stereo not drawn),–,inactive: 9.34% [at 46.1 µM]
CCc1nc2ccc(C)cc2c(C(=O)Oc2cccc3cccnc23)c1C,"inconclusive [inhibitor, single point]",–
C[n+]1ccccc1C1CCCC/C1=N\NC(N)=S (stereo not drawn),–,inactive: 12.8%
N=c1c2c(n(Cc3ccccc3)c3c1CCC3)CCC2,–,inactive: -8.51% [at 46.1 µM]
COc1ccc(C2Nc3ccccc3C(=O)N2Cc2ccco2)cc1COc1ccc(F)cc1 (stereo not drawn),"inconclusive [inhibitor, partial curve]",–
Cc1cccc2c1c1ccc3c(c1n2C)C(=O)C=CC3=O,"inconclusive [activator, single point]",–
Cc1ccc(C(C[N+](=O)[O-])Sc2ccc(N)cc2)cc1 (stereo not drawn),"inconclusive [activator, single point]",–
Cc1onc(-c2c(Cl)cccc2Cl)c1C(=O)Nc1ccc(Cl)cn1,"inconclusive [activator, single point]",–

Structure (SMILES),Potency,"activity change, negative = inhibition"
CCCC(=O)c1ccc(N2CCCCCC2)c(F)c1,"inconclusive [inhibitor, single point]",–
CCc1cc(C(=O)OC)c(NC(=O)c2cc(Br)cs2)s1,"inconclusive [inhibitor, partial curve]",–
COc1ccc(C)cc1-n1nnnc1SCC(=O)N1CCC(C(=O)Nc2nccs2)CC1,"inconclusive [inhibitor, full curve, poor fit]",–
CCC(C)n1c(/C=C/c2ccccc2)nc2ccccc21 (stereo not drawn),–,inactive: -53.1%
CCOC(=O)C(NC(=O)c1ccccc1Cl)(Nc1ccc(C(F)(F)F)cc1)C(F)(F)F (stereo not drawn),"inconclusive [inhibitor, single point]",–
O=C(/C=C/c1ccco1)Nc1cccnc1Cl,–,inactive: 13.8% [at 7.67 µM]
CCc1nnc(NS(=O)(=O)c2ccc(NC(=O)OC)cc2)s1,–,inactive: -21.9% [at 7.67 µM]
Cc1nn(-c2ccc(F)cc2F)c2c1-c1nc(N3CCCC3)ncc1CC2,"inconclusive [inhibitor, full curve, poor fit]",–
O=C(CSc1nnc2scc(-c3ccccc3)n12)Nc1nsc(-c2ccccc2)n1,–,inactive: -6.06% [at 46.1 µM]
O=C(CN1CCN(C(c2ccccc2)c2ccccc2)CC1)N1N=CCC1c1ccccc1 (stereo not drawn),"inconclusive [activator, single point]",–
Cc1c(/C=N/NC(=O)c2cc(C(C)(C)C)[nH]n2)c2ccccc2n1C,"inconclusive [inhibitor, single point]",–
COc1cccc(/C=N/Nc2cc(Cl)nc(C)n2)c1O,–,inactive: -28.9%
O=C(O)c1ccccc1S(=O)(=O)Cc1ccccc1,–,inactive: 2.18% [at 46.1 µM]
CC(=O)N(C)c1ccc(N=Nc2c(C)[nH]n(C(N)=S)c2=O)cc1,–,inactive: -27.7%
Cc1ccc(N(CC(=O)Nc2cc(Cl)ccc2Oc2ccccc2)S(C)(=O)=O)c(C)c1,"inconclusive [inhibitor, single point]",–
COc1ccccc1NC(=S)N(Cc1ccc(C)cc1)Cc1ccccn1,–,inactive: -30.6%
COc1ccc(N2C(=O)C3CCCN3C2c2cccc(F)c2)cc1Cl (stereo not drawn),–,inactive: -14.1% [at 46.1 µM]
COc1ccc(/C=C/C(=O)c2ccc(Cl)s2)cc1O,"inconclusive [inhibitor, partial curve, poor fit]",–
COc1ccccc1Nc1nc(-c2ccccc2O)nc2ccccc12,"inconclusive [activator, single point]",–
Cc1ccc(S(=O)(=O)N2CCCC(C(=O)NCc3cccnc3)C2)cc1Cl (stereo not drawn),"inconclusive [inhibitor, partial curve, poor fit]",–
Cc1ccsc1C(=O)Nc1n[nH]c(C(F)(F)F)n1,"inconclusive [activator, single point]",–
Cn1nc(C(F)(F)F)c(C(=O)Nc2ccc(F)cc2F)c1Sc1ccc(C(F)(F)F)cc1,"inconclusive [inhibitor, single point]",–
